From article PMC4336329 (PLoS ONE, 2015)
In all, about 310,000 compounds went through this assay and about 2,200 (0.71%) showed an effect of 50% or more. The effect is printed as a negative number. This is one part of the list.

The compounds below were run against human ether-à-go-go-related gene (hERG) potassium channel (human, UniProt Q12809) (assay: primary screen, population patch clamp on CHO cells stably expressing hERG).
Sequence of human ether-à-go-go-related gene (hERG) potassium channel (Q12809 whole entry, looked up): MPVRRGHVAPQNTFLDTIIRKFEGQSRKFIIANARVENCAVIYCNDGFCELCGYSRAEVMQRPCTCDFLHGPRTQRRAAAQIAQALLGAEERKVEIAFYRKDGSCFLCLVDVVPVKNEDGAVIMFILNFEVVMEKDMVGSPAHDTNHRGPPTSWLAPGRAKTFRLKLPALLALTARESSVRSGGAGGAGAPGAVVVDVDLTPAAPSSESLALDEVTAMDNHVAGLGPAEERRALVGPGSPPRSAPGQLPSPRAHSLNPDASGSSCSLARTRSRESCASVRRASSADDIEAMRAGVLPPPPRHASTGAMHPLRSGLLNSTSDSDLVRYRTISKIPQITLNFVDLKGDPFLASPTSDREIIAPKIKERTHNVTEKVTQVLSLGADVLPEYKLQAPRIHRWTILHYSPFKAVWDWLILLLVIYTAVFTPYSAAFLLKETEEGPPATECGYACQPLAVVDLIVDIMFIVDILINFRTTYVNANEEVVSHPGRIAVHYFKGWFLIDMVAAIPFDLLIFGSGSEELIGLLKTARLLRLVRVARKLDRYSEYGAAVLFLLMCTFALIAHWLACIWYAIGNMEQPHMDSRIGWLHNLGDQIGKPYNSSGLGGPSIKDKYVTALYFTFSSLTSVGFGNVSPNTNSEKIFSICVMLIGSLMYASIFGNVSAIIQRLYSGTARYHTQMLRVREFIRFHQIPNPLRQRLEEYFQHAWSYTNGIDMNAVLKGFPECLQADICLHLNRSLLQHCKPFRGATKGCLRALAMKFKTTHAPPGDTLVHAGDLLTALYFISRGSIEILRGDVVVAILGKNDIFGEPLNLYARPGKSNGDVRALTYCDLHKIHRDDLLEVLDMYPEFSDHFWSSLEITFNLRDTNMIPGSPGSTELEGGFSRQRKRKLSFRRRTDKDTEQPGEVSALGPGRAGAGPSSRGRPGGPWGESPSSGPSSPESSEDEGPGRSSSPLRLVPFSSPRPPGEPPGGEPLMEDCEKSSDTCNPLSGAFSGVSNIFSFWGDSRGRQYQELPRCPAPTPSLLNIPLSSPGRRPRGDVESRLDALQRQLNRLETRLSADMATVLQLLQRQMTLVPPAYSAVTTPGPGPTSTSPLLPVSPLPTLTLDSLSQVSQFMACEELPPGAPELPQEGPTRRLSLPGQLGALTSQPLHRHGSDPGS

Row | SMILES | hERG current change (%, negative = inhibition) at 1uM
1 | Cc1ccnc(NC(=O)CCC(=O)N(CC(=O)NCc2ccccc2)Cc2cccs2)c1 | -0.178%
2 | COc1ccccc1C(=O)NNC(=O)CCC(=O)NCc1ccccc1 | 7.06%
3 | Cn1c(SCC(=O)N2CCOCC2)nnc1-c1cccc(NC(=O)c2ccccc2F)c1 | 13.6%
4 | Nc1nc(SC2c3cccc4cccc(c34)C2NS(=O)(=O)c2ccccc2)n[nH]1 (centres unmarked) | 7.57%
5 | CCOc1ccc(NC(=O)NNC(=O)c2cccnc2)cc1 | -0.169%
6 | CCn1c(SCC(=O)OCC(=O)N2c3ccccc3NC(=O)C2(C)C)nnc1-c1ccco1 | 2.83%
7 | O=C(CNC(=O)c1ccccc1Cl)NC1CCN(Cc2ccccc2)CC1 | 19.3%
8 | CCCCC#Cc1cncc(C(=O)N/N=C/c2cccc(OC)c2)c1 | 2.9%
9 | CC(=O)Nc1sc(NC(=O)c2ccco2)nc1-c1cccs1 | 7.58%
10 | COc1cccc(NC(=O)CN(C)C(=O)Cc2ccc3c(c2)CCC3)c1 | 3.69%
11 | Cc1ccc(C)c(Cn2nnc3c(=O)[nH]c(C4CCN(S(=O)(=O)c5ccc(S(=O)(=O)NC6CC6)cc5)CC4)nc32)c1 | 19.1%
12 | CCOC(=O)c1cc(C)sc1NC(=O)C1CCC1 | 8.42%
13 | Cc1ccc(N2C(=O)c3ccccc3NC2(C(=O)O)c2ccccc2)cc1Cl (centres unmarked) | 2.47%
14 | Nc1c(C(=O)NC2CC2)sc2nc3c(c(-c4ccco4)c12)CC/C3=C/c1ccco1 | 14.9%
15 | CC(=O)Nc1nc(C(=O)O)cs1 | 13.9%
16 | CC(=O)Nc1ccc(SC[C@H](Cc2ccccc2)N2CC[C@@H](C)CCC2=O)cc1 | 13.1%
17 | O=C(Cc1ccccc1)Nc1c[nH]c(=O)[nH]c1=O | 10.2%
18 | O=C(OCc1ccccc1Cl)c1cc([N+](=O)[O-])ccc1N1CCOCC1 | 3.35%
19 | CCn1nc(NS(=O)(=O)c2ccc([N+](=O)[O-])cc2)c2cc3cccc(C)c3nc21 | 29.6%

Row | SMILES | hERG current change (%, negative = inhibition) at 1uM
20 | N#Cc1cc([N+](=O)[O-])cnc1Nc1ccccc1 | 7.07%
21 | CCCC(=O)Nc1sc2c(c1C#N)CCCCC2 | -2.07%
22 | COc1ccc(S(=O)(=O)N2CCN(C(=O)c3ccc([N+](=O)[O-])o3)CC2)cc1 | -6.05%
23 | CCOc1ccc(-n2c(O)c(/C=C3\C=Nc4ccccc43)c(=O)[nH]c2=O)cc1 | 9.43%
24 | Cn1cc([N+](=O)[O-])c(C(=O)Nc2nc(-c3ccc(Cl)cc3)cs2)n1 | 12.6%
25 | CC(=O)c1ccc(OCCCC(=O)Nc2cccc(S(=O)(=O)N(C)C)c2)cc1 | -2.74%
26 | C[C@@H](O)Cc1cn(CC(=O)NCCCCCCCCCCC(=O)N2CCNCC2)nn1 | 8.24%
27 | Cc1ccc(OCC(=O)Nc2ccc3c(c2)OC(F)(F)O3)c([N+](=O)[O-])n1 | 19.4%
28 | Cc1ccc2c(c1)N(CC(=O)NCCCN1CCCCC1)C(=O)CO2 | 0.609%
29 | CCOC(=O)c1c(C)[nH]c(C(=O)CN(C)CC(=O)Nc2ccccc2C(F)(F)F)c1C | 7.04%
30 | CCOCC(=O)N1CCN(c2ccccc2OC)CC1 | 11.8%
31 | Cc1noc(C)c1CSCC(=O)NCCN1C(=O)S/C(=C\c2ccccc2F)C1=O | 3.65%
32 | CCn1ncc(C2=NOC(C(=O)Nc3c(C)n(C)n(-c4ccccc4)c3=O)C2)c1C (centres unmarked) | 19.1%
33 | COc1cccc(-c2nnc3n2N=C(c2cc(OC)ccc2OC)CS3)c1 | 3.74%
34 | COc1ccc2c(c1)Cc1sc(NC(C)=O)nc1-2 | 13%
35 | O=C(/C=C/c1ccccc1)CC(=O)c1ccccc1O | 14.5%
36 | O=C(Nc1ccc(OCC(=O)N2CCC(Cc3ccccc3)CC2)cc1)c1ccco1 | 6.07%
37 | COCCN(CC(=O)NC1CCCCC1)C(=O)CCCC(=O)Nc1ccccn1 | 7.49%
38 | O=S1(=O)CC(O)C(N2CCC(c3ccccc3)CC2)C1 (centres unmarked) | 14%

Row | SMILES | hERG current change (%, negative = inhibition) at 1uM
39 | N#Cc1cc(Sc2ccccn2)c(Sc2ccccn2)cc1C#N | 1.22%
40 | COC(=O)/C=C(\C)NC(=O)c1ccccc1Cl | 19.4%
41 | O=C(COC(=O)C1=Cc2ccccc2OC1)NC1CCCC1 | 16%
42 | CCOc1ccc(NC(=O)c2sc3nc(N4CCOCC4)c4c(c3c2N)CC(C)(C)OC4)cc1 | 15.1%
43 | COc1ccccc1CNc1nc2nc3c(c(=O)n2[nH]1)CCC3 | -2.43%
44 | CCOC(=O)CN1CC23C=CC(O2)C(C(=O)O)C3C1=O (centres unmarked) | 3.94%
45 | CCCCCCN1CC(C(=O)OCC)C(=O)C1=O (centres unmarked) | -1.64%
46 | O=C(COC(=O)c1ccccc1[N+](=O)[O-])c1ccc(C2CCCCC2)cc1 | 10.4%
47 | CCOc1ncccc1C(=O)OCC(=O)c1ccc(Cl)s1 | 6.4%
48 | CC(=O)c1c(C)[n+]([O-])c2ccc3c(non3O)c12 | 8.03%
49 | CCOc1ccc2cc(C#N)c(SCC(=O)NC(C)CC)nc2c1 (centres unmarked) | -1.17%
50 | CCOC(=O)N1CCC(NC(=O)c2cc(C(=O)Nc3ccc(OCC)cc3)ccc2CO)CC1 | 14.7%
51 | CCN1CCN(c2nc(-c3cccs3)nc3ccccc23)CC1 | -66.2%
52 | CCOC(=O)C1CCCN(CCC(=O)Nc2cc(C)cc(C)c2)C1 (centres unmarked) | -9.62%
53 | Cc1ccc(CCNC(=O)CCSCc2ccc(Cl)cc2)cc1 | 15.9%
54 | C/C(=N\Nc1ccc(Cl)c(C(=O)O)c1)c1cc2ccccc2o1 | 5.9%
55 | CC(C)(C)NC(=O)Cn1nc(C(F)(F)F)c2c1CCCC2 | 8.82%
56 | C/C=C1/C[C@@H](C)[C@](O)(CO)C(=O)OCC2=CCN3CC[C@@H](OC1=O)[C@@H]23 | 14.2%
